# Results as given in PubChem BioAssay (Tox21).
# Values joined by “and” are separate entries in the source; they are usually repeats but may differ in a detail not shown here. Identical values can stand only once. The shares of active, inactive and inconclusive entries below differ from those in the screen. Potencies beside an inconclusive call are fits to weak or partial responses and may not hold up. Active and inactive are the calls of the source. The call rests on the fitted dose curve; in most records, active means well fitted inhibition curve with a large enough effect in the signal ratio in the repeat runs (not every such curve was filed as active); inconclusive means weak or mixed curves; inactive means flat fitted curve, though single readings scatter; the % refers to the signal ratio.
# Target: Progesterone receptor (Homo sapiens) (UniProt P06401)
# UniProt P06401, sequence (P06401 whole entry, looked up): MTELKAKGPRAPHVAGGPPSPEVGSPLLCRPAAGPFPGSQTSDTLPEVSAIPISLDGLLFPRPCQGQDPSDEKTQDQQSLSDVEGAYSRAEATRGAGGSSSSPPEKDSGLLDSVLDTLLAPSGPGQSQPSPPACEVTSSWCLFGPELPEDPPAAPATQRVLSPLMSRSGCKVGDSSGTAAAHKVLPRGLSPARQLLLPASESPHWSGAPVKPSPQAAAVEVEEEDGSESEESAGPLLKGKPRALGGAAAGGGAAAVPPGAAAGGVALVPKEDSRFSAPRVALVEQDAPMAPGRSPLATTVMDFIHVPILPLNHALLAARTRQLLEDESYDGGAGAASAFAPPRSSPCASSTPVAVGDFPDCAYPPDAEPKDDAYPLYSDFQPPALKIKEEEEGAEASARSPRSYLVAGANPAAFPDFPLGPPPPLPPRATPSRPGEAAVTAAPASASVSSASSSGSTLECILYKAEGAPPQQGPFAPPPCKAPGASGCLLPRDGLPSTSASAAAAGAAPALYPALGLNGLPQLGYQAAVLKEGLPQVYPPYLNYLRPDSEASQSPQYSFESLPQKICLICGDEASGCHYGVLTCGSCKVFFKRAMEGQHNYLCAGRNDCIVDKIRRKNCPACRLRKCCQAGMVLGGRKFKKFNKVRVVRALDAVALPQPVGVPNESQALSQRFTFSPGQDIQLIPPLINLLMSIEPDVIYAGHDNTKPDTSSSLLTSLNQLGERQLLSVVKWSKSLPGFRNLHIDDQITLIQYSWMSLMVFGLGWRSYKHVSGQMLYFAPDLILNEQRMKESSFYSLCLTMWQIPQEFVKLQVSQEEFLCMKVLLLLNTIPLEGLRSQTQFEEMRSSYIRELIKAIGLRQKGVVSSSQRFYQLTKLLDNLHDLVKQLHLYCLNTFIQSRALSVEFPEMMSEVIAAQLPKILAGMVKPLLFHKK
# Experiment: qHTS assay to identify small molecule antagonists of the progesterone receptor (PR) signaling pathway (AID 1346795)
# Settings: PR-UAS-bla HEK293T, beta-lactamase FRET ratio, 16 h; activity change, negative = inhibition: at 92.4 µM (top of the series) unless noted
# From the text: National Center for Advancing Translational Sciences [NCATS]
# NIH Chemical Genomics Center [NCGC]
# U.S. Environmental Protection Agency [EPA]
# National Institutes of Environmental Health Sciences [NIEHS]
# National Toxicology Program [NTP]
# U.S. Food and Drug Administration [FDA]
# Progesterone receptor (PR), a nuclear hormone receptor, plays an important role in development, metabolic homeostasis and reproduction. […] Endocrine disrupting chemicals (EDCs) and their interactions with steroid hormone receptors like PR causes disruption of normal endocrine function. To identify the compounds that inhibit PR signaling, a PR-UAS-bla GripTite cell line i.e. PR-UAS-bla HEK293T (Invitrogen, Carlsbad, CA, USA) containing a beta-lactamase reporter gene under the control of an Upstream Activator Sequence (UAS) was used to screen Tox21 10K compound library.
# Tox21 Assay Protocol Summary:
# PR-UAS-bla HEK293T cells were dispensed at 3,000 cells/4 uL of assay medium containing 2% charcoal stripped FBS per well into black wall/clear-bottom 1536-well plates using a Multidrop Combi (ThermoFisher Scientific, Waltham, MA) dispenser. After the assay plates were incubated at a 37C and 5% CO2 for 6 hr, 23 nL of compounds dissolved in DMSO, positive controls or DMSO only was transferred to the assay plate by a Pintool station (Kalypsys, San Diego, CA), followed by addition of 1 uL (1nM as final concentration) of Promegestone (R5020) in assay medium using a BioRAPTR FRD (Flying Reagent Dispenser, Aurora Discovery, San Diego, CA). The plates were incubated at 37C and 5% CO2 for 16 hr. Then 1 uL of LiveBLAzer B/G FRET substrate was added using a FRD. After the plates were incubated at room temperature for 2 hours, fluorescence intensity was measured by an Envision plate reader (PerkinElmer, Shelton, CT).
# On the % scale 0 is the no-effect control and ±100 the full control effect; potency means the concentration at half of the fitted maximal effect; tags describe the fitted curve by direction and shape.
SMILES,"activity change, negative = inhibition",Potency
CC(CSC(=O)c1ccccc1)C(=O)N1C[C@@H](Sc2ccccc2)C[C@H]1C(=O)O (stereo not given in full),inactive: 1.77% [at 18.9 µM],–
CCCC(=O)O[C@]1(C(=O)COC(=O)CC)CC[C@H]2[C@@H]3CCC4=CC(=O)CC[C@]4(C)[C@H]3[C@@H](O)C[C@@]21C,inconclusive: -29.4% [at 18.9 µM],–
C=C(C)C(=O)OCCNC(C)(C)C,–,"inconclusive: 27.3 µM [rising, single point]"
CC(=O)Nc1c(I)c(NC(C)=O)c(I)c(C(=O)O)c1I,–,inactive
COc1ccc(Cl)cc1C,–,inactive
C[Si](C)=O,inactive: 12.9% [at 8.39 µM],–
Brc1ccc(-c2ccccc2)cc1,inconclusive: -3.26%,–
CCCCCCCC(=O)O,inconclusive: 12.6%,–
Cc1cc(C)n(CO)n1,–,"inconclusive: 1.54 µM [rising, partial curve, poor fit]"
c1ccc(B(c2ccccc2)c2ccccc2)cc1,–,active: 54.4 µM
O=C(O)CN(CCOCCOCCN(CC(=O)O)CC(=O)O)CC(=O)O,inactive: 0.191% [at 0.348 µM],–
CCCCC(O)/C=C(C)/C=C/C=C/C(=O)N1CCCC1=O (stereo not given),–,inactive
C[C@H](NC(CCc1ccccc1)C(=O)O)C(=O)N1CCC[C@H]1C(=O)O (stereo not given in full),–,inactive
N#Cc1ccc(C(c2ccc(C#N)cc2)n2cncn2)cc1,–,inactive
CCCCS,–,inactive
C=C[C@H]1CN2CC[C@H]1C[C@H]2[C@H](O)c1ccnc2ccc(OC)cc12,inconclusive: -27.2%,–
COc1ccc2nc(SCc3ncc(C)c(OC)c3C)[nH]c2c1,–,"inconclusive: 29.8 µM [falling, partial curve]"
Oc1cc2ccccc2cc1O,–,inactive
CC(C)(CO)[C@@H](O)C(=O)NCCC(=O)O,inconclusive: 10.6%,–
CC(=O)OCC(=O)[C@@]1(O)CCC2C3CCC4=CC(=O)CC[C@]4(C)C3[C@@H](O)C[C@@]21C (stereo not given in full),–,"inconclusive: 1.88 µM [falling, full curve]"

SMILES,"activity change, negative = inhibition",Potency
CCOc1ccc2nc(N)sc2c1,–,active: 60.6 µM
COC(=O)CSc1cc(N=c2sc(=O)n3n2CCCC3)c(F)cc1Cl,inconclusive: 0.122%,–
C=CC(=O)N1CCOCC1,–,inactive
CC(C)OC(=O)C(C(=O)OC(C)C)=C1SC=CS1,–,inconclusive: 33.5 µM
c1ccc2c(c1)[nH]c1ccccc12,–,active: 26.8 µM and inconclusive: 30.6 µM
C=C(C)[C@@H]1CC=C(C)C(=O)C1,–,inactive
CC(=O)c1ccccc1[N+](=O)[O-],inconclusive: 2.88%,–
CC(C)CCCC(C)NCCC(C)C (stereo not given),–,inactive
CCO[Si](C)(C)OCC,–,inactive
CCOc1ccc2nc(S(N)(=O)=O)sc2c1,inconclusive: -41.8% [at 42.5 µM],–
CCOC(=O)Nc1ccc2c(c1)N(C(=O)CCN1CCOCC1)c1ccccc1S2,inconclusive: -35.3% [at 42.5 µM],–
CCCCc1ccc2c(n1)[C@@H](c1ccc(OC)cc1C[C@H](C)C(=O)O)[C@H](C(=O)O)[C@H]2c1ccc2c(c1)OCO2,inconclusive: 5.8%,–
C[Si](C)(C)O[Si](O)(O)O,–,"inconclusive: 27.3 µM [rising, full curve, poor fit]"
CCOc1ccc(C(=O)OCCN(CC)CC)cc1,–,inactive
CC1(C)CC(O)CC(C)(C)N1[O],–,inactive
Cc1cccc(C)c1C,–,inactive
CC(=O)OCCCc1ccccc1,–,inactive
O=C1NCC2(CCN(CCc3ccccc3)CC2)O1,–,inactive
CCCCC(CC)(CO)CO,–,inactive
CC(=O)OCC(=O)Nc1cc(C#N)cc(NC(=O)COC(C)=O)c1Cl,inconclusive: 6.64% [at 42.5 µM],–
